Experimental data published in the CheMixHub viscosity set.
“And” between values parts separate entries of the source, which are not always exact repeats. Equal entries are not always repeated. The source gives many values for each of these; only a part stands here.

C1CCCCC1
Conditions	viscosity
298.1 K, 101 kPa	0.841 mPa·s and 0.841 mPa·s
298.15 K, 101 kPa	0.8856 mPa·s and 0.889 mPa·s
303.15 K, 101 kPa	0.819 mPa·s
308 K, 101 kPa	0.7836 mPa·s
308.15 K, 101 kPa	0.7607 mPa·s and 0.7367 mPa·s and 0.7503 mPa·s
313.15 K, 101 kPa	0.7148 mPa·s
318.15 K, 101.33 kPa	0.6536 mPa·s
323.15 K, 100 kPa	0.6089 mPa·s
323.15 K, 101.33 kPa	0.6045 mPa·s
